# According to PubChem BioAssay AID686978 (National Center for Advancing Translational Sciences (NCATS), 2013):
# In all, about 420,000 compounds went through this assay and about 64,000 (15%) were called active. Inconclusive results, whose numbers are uncertain, are shown with a selection of clear calls. Calls come from the whole dose curve; as a rule, active = well fitted inhibition curve with a large enough effect; inconclusive = small, poorly fitted or top-dose-only effect; inactive = flat fitted curve, though single readings scatter. Potencies of inconclusive entries are left out as doubtful fits.
# Assay: qHTS for Inhibitors of human tyrosyl-DNA phosphodiesterase 1 (TDP1): qHTS in cells in absence of CPT; note: nearly all actives have a fitted effect of over 55% in size
# Settings: DT40 Tdp1-/- hTDP1 cells, no CPT, ATP luminescence, 48 h; activity change, negative = growth inhibition: at 46.2 µM (top of the series) unless noted
# How it was run: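 A cellular qHTS used chicken DT40 cells lacking endogenous Tdp1 but carrying stably transfected human TDP1. Compounds were applied without camptothecin, and cell growth kinetics were judged by ATP-dependent luminescence after ≥48 hr.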
# % is set by controls: 0 for no effect and ±100 for the full control effect; potency is the fitted concentration of half-maximal effect; tags give direction and shape of the fitted curve.
Compound,Potency,"activity change, negative = growth inhibition"
O=C(CN1C(=O)C2C3CCC(C3)C2C1=O)OCC(=O)c1cccc([N+](=O)[O-])c1 (stereo not given),"inconclusive [inhibitor, single point]",
O=c1[nH]c(=O)n([C@@H]2O[C@H](CO)[C@@H](O)[C@H]2O)cc1Br,,inactive: -23.9%
COc1ccc(CN(CCc2ccccc2)Cc2ccccc2)cc1OC,"inconclusive [inhibitor, single point]",
CN1CC(=O)N/C1=N\C(=O)Nc1ccc2c(c1)N(C)C(=O)CS2,,inactive: 5.87%
CCC(=O)N(Cc1cc2cc(OC)ccc2[nH]c1=O)c1cccc(C)c1,"inconclusive [inhibitor, partial curve]",
COc1ccc(OC)c2c(C)c(C)[nH]c12,,inactive: 8.97%
CCOC(=O)c1c(C)[nH]c2cc(Br)c(OC)cc12,,inactive: -21.6%
O=C(CS(=O)CC(=O)Nc1ccccc1-c1ccccc1)Nc1ccc(F)cc1 (stereo not given),,inactive: -26.5%
CCOc1ccc(NC(=O)c2ccc(-c3cccc(Cl)c3C)o2)cc1,"inconclusive [inhibitor, single point]",
Cc1cccc(-n2ncc3c2CCCC3NC(=O)C2(C(N)=O)CC2)c1C (stereo not given),"inconclusive [inhibitor, full curve]",
CCOC(=O)Nc1ccccc1C(=O)N1CCOCC1,,inactive: -4.59%
Oc1ccc(-c2cnc3c(Nc4cccc(OC(F)(F)C(F)F)c4)nccn23)cc1,"inconclusive [inhibitor, single point]",
c1ccc(CCNc2cc(-c3ccc4ccccc4c3)nc3ccnn23)nc1,"inconclusive [inhibitor, single point]",
Cc1cccc(C2C=C(c3ccc(F)cc3)Nc3nc4ccccc4n32)c1 (stereo not given),"inconclusive [inhibitor, single point]",
CCOC(=O)c1cnc2c(ccc3ccccc32)c1Nc1ccc(OC)c(OC)c1,active: 4.61 µM,
N=C1c2ccccc2CN1NC(=O)CC12CC3CC(CC(C3)C1)C2,"inconclusive [inhibitor, single point]",
COc1ccccc1N1CCN(C(=O)c2cc(S(=O)(=O)N3CCOCC3)ccc2C)CC1,"inconclusive [inhibitor, single point]",
O=[N+]([O-])c1cccnc1Nc1ccc(Cl)cc1,,inactive: 0.749%
CCNC(=O)C1(C)CCN1CCS(=O)(=O)c1ccc(C)cc1 (stereo not given),,inactive: -3.26%
CC1=C(C(=O)N2CCOCC2)CC(CC(=O)NCC2CCCCC2)C(=O)N1Cc1ccc(F)cc1 (stereo not given),"inconclusive [inhibitor, partial curve]",
CC(CCC(=O)O)C1CCC2C3CC(O)C4CC(O)CC[C@]4(C)C3CCC12C (stereo not given in full),,inactive: -1.1%
O=c1c2cc3c(nc2ncn1Cc1ccccc1F)CCCC3,"inconclusive [inhibitor, single point]",
Cc1ccc(S(=O)(=O)N2CCCCC2)cc1NC(=O)COC(=O)Cc1c(F)cccc1Cl,"inconclusive [inhibitor, single point]",
Cc1[nH]c2ccccc2c(=O)c1C(=O)/C=C/c1ccccc1,active: 2.31 µM,

Compound,Potency,"activity change, negative = growth inhibition"
CC(=O)Nc1cc(-c2ccc(C(=O)NC3CC3)cc2)cn2c(-c3cccc(C(F)(F)F)c3)cnc12,active: 23.1 µM,
CC1CCN(C(C)C(=O)Nc2ccc(S(=O)(=O)N3CCCC3)cc2)CC1 (stereo not given),,inactive: -13.8%
COc1ccc(NC(=O)CC2C(=O)N(c3ccc(Cl)cc3)C(=S)N2CCc2ccncc2)cc1 (stereo not given),"inconclusive [inhibitor, single point]",
COc1c(O)cc2c(=O)oc3c(OC)c(O)cc4c(=O)oc1c2c34,,inactive: -2.98% [at 9.04 µM]
Cc1[nH]c2ccccc2c1/C=C/c1nc2ccccc2c(=O)n1CCO,active: 4.61 µM,
CCCCN(CC)CCCNC(=S)Nc1ccc2nc(N3CCN(C)CC3)cc(C)c2c1,active: 16.4 µM,
Cc1ccc(/C=C2/SC(=S)N(CCCC(=O)Nc3cc([N+](=O)[O-])ccc3O)C2=O)cc1,,inactive: 5.22%
O=C(NCCCn1ccnc1)c1nn2c(C(F)(F)F)cc(-c3ccccc3)nc2c1Cl,"inconclusive [inhibitor, single point]",
O=[N+]([O-])c1ccc2nc(SCc3cn4cc(Cl)ccc4n3)[nH]c2c1,"inconclusive [inhibitor, single point]",
Cc1c(C)c2cc(Cl)c(OC(C)C(=O)NCCN3CCOCC3)cc2oc1=O (stereo not given),"inconclusive [inhibitor, single point]",
C(=N\Nc1nc(N2CCCC2)nc(N2CCCC2)n1)/c1ccccc1OCc1ccccc1,"inconclusive [inhibitor, single point]",
Cc1ccc(CNCC(O)(c2ccccc2)c2ccccc2)cc1,active: 20.6 µM,
COc1ccc(C(=O)NCCSc2c(C)[nH]c3ccccc23)cc1,"inconclusive [inhibitor, single point]",
CN(C)c1ccc(CC(=O)N2CCCCC2c2cc(C(=O)Nc3ccccc3)no2)cc1 (stereo not given),active: 25.9 µM,
Cc1ccsc1/C=N/Nc1nc2ccccc2[nH]1,"inconclusive [inhibitor, single point]",
C=CCn1c(SCC(=O)c2cc(C)n(CCOC)c2C)nc2sc(C)c(C)c2c1=O,"inconclusive [inhibitor, partial curve, poor fit]",
NCC1O[C@@H](OC2C(N)CC(N)C(O)C2O[C@@H]2OC(CO)C(O)C2O)C(N)C(O)C1O (stereo not given in full),,inactive: -1.23%
Cc1cc2nc(C(C)(C)C)c(Cc3ccccc3)n2c(C)c1Br,"inconclusive [inhibitor, single point]",
COc1cc(C(=O)OCC(=O)N2CCC(C)CC2)cc2c1OCCO2,,inconclusive: -31.3% [inhibitor]
CCOC(=O)C(=CNc1ccc(Cl)cn1)C(=O)OCC,,inconclusive: -30.9% [inhibitor]
Cc1ccc(NC(=O)Nc2nnc(SCC(=O)N3CCC(C)CC3)s2)cc1,active: 23.1 µM,
CCOC(=O)N1CCN(C(=O)C2CCCN(c3nc4ccc(OCC)cc4s3)C2)CC1 (stereo not given),"inconclusive [inhibitor, partial curve]",
COCC1CCN(C(=O)c2cc(COc3ccc(F)cc3Cl)on2)C1 (stereo not given),"inconclusive [inhibitor, partial curve, poor fit]",
Cc1cc(C)c2nc(/N=C(\N)NC(=O)Nc3ccccc3)nc(C)c2c1,active: 18.4 µM,

Compound,Potency,"activity change, negative = growth inhibition"
Cc1ccc(N(C)C(=O)c2cnn(-c3ccccc3)c2C)c(C)c1,"inconclusive [inhibitor, single point]",
Cc1cc(F)ccc1N1CCC(N2CCN(CCC(C)C)C(CCO)C2)CC1 (stereo not given),active: 23.1 µM,
CCOC(=O)Cn1cc(C=O)c2ccccc21,,inactive: 2.41%
CC(C)c1ccc(OCC(=O)NNC(=S)NC(=O)C2CC2)cc1,active: 14.6 µM,
CCOc1ccc(NC(=O)CN(C)C(=O)C(C)Oc2ccc(Cl)cc2)cc1OCC (stereo not given),"inconclusive [inhibitor, single point]",
CCC1CCCCN1CCCNC(=O)c1ccc2c(c1)N(Cc1c(F)cccc1Cl)C(=O)CS2 (stereo not given),"inconclusive [inhibitor, partial curve]",
CC1(C)C2CCC1(C)C(NC(=O)/C=C/c1ccccc1)C2 (stereo not given),active: 18.4 µM,
COc1ccccc1-c1cc(C(F)(F)F)nc(S(=O)(=O)CCCC(=O)Nc2ccc(F)c(Cl)c2)n1,"inconclusive [inhibitor, full curve, poor fit]",
COc1cccc2[nH]c3c(N4CCC(C)CC4)ncnc3c12,active: 18.4 µM,
COc1ccc(S(=O)(=O)N(C)C[C@@H]2Oc3c(NS(C)(=O)=O)cccc3C(=O)N([C@@H](C)CO)C[C@H]2C)cc1,,inactive: -12.3%
CCCn1c(C)cc(/C=C(\C#N)C(=O)OCC(=O)Nc2cc(OC)c(OC)c(OC)c2)c1C,"inconclusive [inhibitor, partial curve]",
O=C(CCNC(=O)c1ccccc1Cl)Nc1nc(-c2ccc3ccccc3c2)cs1,"inconclusive [inhibitor, single point]",
COC(=O)c1ccccc1NC(=O)C(=O)NCC1CCCO1 (stereo not given),"inconclusive [inhibitor, partial curve]",
CCCOc1ccc(-c2nc(C#N)c(N3CCc4ccccc4C3)o2)cc1,"inconclusive [inhibitor, single point]",
COc1ccc(C(=O)N2CCC(c3c[nH]c4ccccc34)(c3c[nH]c4ccccc34)CC2)cc1,"inconclusive [inhibitor, single point]",
COc1ccc(CNC(=O)C(=O)c2cn(CC(=O)N3CCCC3)c3ccccc23)cc1,,inactive: -8.72%
O=C(O)c1ccccc1NC(=O)c1ccccc1Nc1ccccc1,"inconclusive [inhibitor, single point]",
Cc1onc(-c2ccccc2Cl)c1C(=O)NCc1ccc(F)cc1,"inconclusive [inhibitor, partial curve, poor fit]",
CCn1c(SCC(=O)Nc2cc(F)ccc2C)nnc1-c1ccccc1O,"inconclusive [inhibitor, partial curve]",
CC(C)NC(=O)N(C)C[C@H]1OCCCC[C@@H](C)Oc2ccc(NC(=O)C3CCCCC3)cc2C(=O)N([C@H](C)CO)C[C@@H]1C,active: 11.6 µM,
CCN(CC)c1ccc(/C=N/NC(=O)CN2CCCc3ccccc32)cc1,"inconclusive [inhibitor, single point]",
Cn1c(=O)c2cc(S(=O)(=O)NCCC(=O)NCCc3ccc(Cl)cc3)ccc2n(C)c1=O,,inactive: -21.3%
